Test results: PubChem BioAssay AID624417 (National Center for Advancing Translational Sciences (NCATS), 2012)
Out of some 410,000 compounds screened, about 6,400 (1.6%) were called active. Inconclusive means that the source gave no clear call. Such entries were picked first, then a sample of the others. Calls follow the shape of the dose curve; as a rule, active = well fitted inhibition curve with a large enough effect; inconclusive = small, poorly fitted or top-dose-only effect; inactive = no such curve, though single readings can be large or run the other way. Potencies of inconclusive entries are left out as doubtful fits.

Biological target: Glucagon-like peptide 1 receptor (Homo sapiens) (UniProt P43220)
Sequence of UniProt P43220 (P43220 whole entry, looked up): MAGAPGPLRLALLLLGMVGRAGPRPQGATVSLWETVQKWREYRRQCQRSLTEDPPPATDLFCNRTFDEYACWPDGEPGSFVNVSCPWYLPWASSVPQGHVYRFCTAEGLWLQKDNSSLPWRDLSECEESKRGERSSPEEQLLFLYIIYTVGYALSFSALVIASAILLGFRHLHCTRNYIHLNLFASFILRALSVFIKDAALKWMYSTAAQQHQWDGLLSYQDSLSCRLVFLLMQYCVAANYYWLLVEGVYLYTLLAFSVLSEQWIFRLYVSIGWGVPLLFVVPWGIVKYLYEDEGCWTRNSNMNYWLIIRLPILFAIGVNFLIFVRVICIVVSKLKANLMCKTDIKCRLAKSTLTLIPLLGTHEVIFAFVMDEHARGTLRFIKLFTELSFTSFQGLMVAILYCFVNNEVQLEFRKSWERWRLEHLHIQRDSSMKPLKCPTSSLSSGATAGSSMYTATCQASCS
Test: qHTS of GLP-1 Receptor Inverse Agonists (Inhibition Mode); also: nearly all actives have a fitted effect of over 55% in size
Conditions: HEK293 GLP-1R CRE-luciferase, luminescence, 24 h, GLP-1R form is constitutively active; activity change, negative = inhibition: at 38.3 µM (top of the series) unless noted
Procedure, shortened: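 Using stably transfected HEK293 (constitutively active GLP-1R, cAMP-luciferase reporter), compounds were incubated 24 hr and luciferase measured by luminescence.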
% is scaled to controls: 0 for no effect and ±100 for the full control effect; potency is read from the fitted curve at half-maximal effect; tags tell the direction and shape of the fitted curve.

SMILES	activity change, negative = inhibition	Potency
Clc1ccc(-c2ccc(-c3nn4c(-c5ccco5)nnc4s3)o2)cc1	inactive: 0%	
Cc1cc(NC(=O)c2ccc3nccnc3c2)ccc1Br		inconclusive [inhibitor, single point]
COc1cc(NC(=O)c2cc3c(=O)n(Cc4ccco4)ccc3nc2C)cc(OC)c1OC	inactive: 7.02%	
O=C(C1CCC(Cn2c(=O)c3sccc3n(Cc3ccccc3F)c2=O)CC1)N1CCOCC1 (centres undefined)	inactive: 10%	
O=C1C2C3C=CC(C4CC34)C2C(=O)N1/N=C/c1ccc(-c2ccc(Cl)cc2[N+](=O)[O-])o1 (centres undefined)		inconclusive [inhibitor, partial curve, poor fit]
CCCCc1nc(SCC(=O)N2CCCCC2)c2c(=O)n(C)c(=O)n(C)c2n1		inconclusive [inhibitor, single point]
O=C(COc1ccccc1Cl)NC(=S)Nc1ccccc1N1CCCC1		inconclusive [inhibitor, partial curve, poor fit]
COc1cccc(NC(=O)CN2C(=O)CC(c3ccco3)Sc3ccccc32)c1 (centres undefined)		inconclusive [inhibitor, single point]
CCc1nc2c(OCCOc3ccc(F)cc3)cccn2c1N(C=O)Cc1ccccc1		inconclusive [inhibitor, single point]
O=C1NC(=S)S/C1=C\c1cccc([N+](=O)[O-])c1		inconclusive [inhibitor, single point]
COc1ccc(CCNC(=O)c2cc(COc3c(F)cccc3F)on2)c(OC)c1		inconclusive [inhibitor, partial curve, poor fit]
CC1CCN(CCOc2cccc(Br)c2)CC1	inactive: -23.4%	
Cc1ccc(N(C)S(=O)(=O)c2cccc(C(=O)N(C)Cc3cnn(-c4ccccc4)c3)c2)cc1		inconclusive [inhibitor, partial curve, poor fit]
Cc1ccc(OCCSCc2nnc(NC(=O)Nc3cccc(Cl)c3)s2)cc1		inconclusive [inhibitor, partial curve, poor fit]
CC(C)N(C(=O)[C@H]1CC(CC(=O)NCc2cccc(C(F)(F)F)c2)C(=O)N2CCc3c([nH]c4ccccc34)[C@]12C)C(C)C (some centres undefined)		inconclusive [inhibitor, single point]
Cc1ccc2c(c1)c(=O)c1ccccc1n2CCCC(=O)Nc1ccc(Cl)c(Cl)c1	inactive: 0.741%	
Cc1ccc2c(CN3CCN(Cc4ccccc4)CC3)cc(=O)oc2c1C		inconclusive [inhibitor, partial curve, poor fit]
Cc1ccc(S(=O)(=O)N2CCCN(S(=O)(=O)c3ccc4c(c3)OCCO4)CC2)cc1		inconclusive [inhibitor, single point]
COc1ccc(-c2n(CC(=O)OC3CC(C)CCC3C(C)C)c3ccccc3[n+]2C)cc1 (centres undefined)		active: 7.08 µM
COc1cccc(NC(=S)N2CCC(C(=O)c3ccc(F)cc3)CC2)c1		inconclusive [inhibitor, partial curve, poor fit]

SMILES	activity change, negative = inhibition	Potency
COc1ccccc1NC(C)C(=O)N/N=C/c1ccccc1OCc1cccc(Br)c1 (centres undefined)		inconclusive [inhibitor, partial curve, poor fit]
CN(CC1COc2ccccc2O1)C(=S)Nc1ccccc1 (centres undefined)		inconclusive [inhibitor, partial curve, poor fit]
COc1ccc(-c2csc(NC(=S)NC(=O)/C=C/c3ccco3)n2)cc1OC	inactive: -14.8%	
COc1ccc(C(CCN(Cc2ccc(OC)c(OC)c2)C(C)=O)C(C)C)cc1 (centres undefined)		inconclusive [inhibitor, partial curve, poor fit]
O=C(/C=C/c1cnc2ccccc2n1)NC12CC3CC(CC(C3)C1)C2		active: 2.51 µM
CC(C)C[C@@H](C(=O)NCC1CCCO1)N1C(=O)N2CCc3c([nH]c4ccccc34)[C@@]2(C)C1=O (some centres undefined)		inconclusive [inhibitor, single point]
COc1ccc(NC(C#N)c2ccccc2OCc2ccccc2)cc1 (centres undefined)		inconclusive [inhibitor, partial curve, poor fit]
Cc1ccc2[nH]c3c(NCc4ccccc4)ncnc3c2c1		inconclusive [inhibitor, partial curve, poor fit]
CCOc1cc(C(Nc2cc(C)ccn2)c2ccc3cccnc3c2O)ccc1OC (centres undefined)		inconclusive [inhibitor, full curve, poor fit]
c1ccc(CCSc2nccn2-c2ccccc2)cc1		inconclusive [inhibitor, single point]
Cc1ccc(C)c(S(=O)(=O)c2c(C)cc(C)nc2Cl)c1		inconclusive [inhibitor, single point]
CCCOC(=O)c1c(NC(=O)/C=C/c2cnn(C)c2C)sc(C(=O)OCC)c1C	inactive: 5.5%	
CCCCc1c(Cc2ccccc2)ncn1CCc1ccccc1OC		inconclusive [inhibitor, single point]
COc1ccc(CC2c3cc(OC)c(OC)cc3CC[N+]2(C)CCC(=O)OCCCCCOC(=O)CC[N+]2(C)CCc3cc(OC)c(OC)cc3C2Cc2ccc(OC)c(OC)c2)cc1OC (centres undefined)		inconclusive [inhibitor, single point]
COc1ccccc1NC(=O)c1c(C)cc(C)nc1SCC(=O)Nc1ccc(C)cc1		inconclusive [inhibitor, partial curve, poor fit]
COc1ccc(NC(=O)Cn2nnc(C(=O)NCc3ccco3)c2N)c(OC)c1		inconclusive [inhibitor, single point]
Cc1ccc(Sc2ncccc2[N+](=O)[O-])cc1		inconclusive [inhibitor, single point]
O=C(NCCOCc1ccccc1)C(c1ccccc1)c1ccccc1		inconclusive [inhibitor, single point]
CC(=O)[C@H]1CC[C@H]2[C@@H]3CC=C4C[C@@H](O)CC[C@]4(C)[C@H]3CC[C@]12C	inactive: 11.9%	
